According to the supplement of paper PMC10126150:
Values marked as one replicate rest on one cluster of the flow cell; about a third of the high ones do not repeat.

These sequences were tested on ATP (assay: switch fluorescence ratio, 500 uM ATP over buffer (Cy3 cluster intensity, sum of 5 cycles each) (fold (ratio)); higher = stronger signal-on switching upon ATP binding; sequences stand for … in TCGTCGGCAGCGTCAGATGTGTATAAGAGACAGTTTTTTTTTTTTTTTTTTTTTTTTT…TC). Conditions: aptamer strand: ATP DNA aptamer (quencher-CACCTGGGGGAGTATTGCGGAGGAAGG + anchor), 100 nM annealed; ATP concentration: 500 uM; one replicate.
Procedure, shortened: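 After annealing to 100 nM quencher-labelled ATP aptamer, Cy3-labelled switching-strand clusters on a modified Illumina MiSeq flow-cell were imaged in selection buffer. A second image followed after 15 min with 500 uM ATP at 22 °C, and five such buffer/ATP cycles were done, each separated by NaOH stripping and re-annealing. The fluorescence ratio, averaged per switch-domain sequence, is summed target-cycle over summed buffer-cycle Cy3 intensity per cluster, with clusters outside 100-1000 RFU excluded.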
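Further: ATP exposure 15 min at 22 °C before imaging.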

Row | Sequence | switch fluorescence ratio
1 | ACCGGAAAGC | 1.37
2 | CTTCACCGCG | 1.32
3 | CTGTTATTAA | 0.983
4 | AGGAAGATGA | 0.977
5 | TAGATCGCTT | 0.998
6 | CTAAACTCAT | 1.03
7 | GTTACAGGCT | 0.989
8 | GATCGAGTGC | 1.1
9 | TAGCGCTGCG | 0.997
10 | GCACCCCGAC | 1.32
11 | AGTTAGGAT | 0.981
12 | AGACGG | 0.928
13 | AGCTAAGTTT | 0.987
14 | GGCGCGTTGG | 0.964
15 | GGATACGCGG | 1.02
16 | TTCCATCTG | 1.16
17 | GCCTCATCGT | 0.977
18 | CGTAGGCCC | 1.04
19 | CAGTTCTATA | 1.01
20 | AGTAGCTTCA | 1.16
21 | GGGTACAGAG | 0.981
22 | ACACTTAGGA | 1.03
23 | TCGAAGCTGT | 1.01
24 | TAATGTCA | 0.963
25 | CGTTTCACCC | 1.02
26 | CGTCTAACAT | 1

Row | Sequence | switch fluorescence ratio
27 | CCGAAGATTA | 1.87
28 | TTTGGACGT | 1
29 | AGGATTCTGT | 0.993
30 | CGTGGCGACC | 1.01
31 | CTTTTTGCTC | 0.951
32 | CGAGTGTGCG | 1.02
33 | GTATTGGATT | 0.952
34 | GCCTTACTTG | 1.07
35 | ATGTGCAGCA | 1.01
36 | CTCGAATTC | 1.12
37 | AGTTCTACA | 1.05
38 | TCAAAGAAGA | 0.979
39 | AGGTTTATCT | 1.03
40 | TAAAAGTTCG | 0.939
41 | CGTTGGACTT | 0.996
42 | GTCACGATCT | 0.947
43 | AGCGGTCG | 0.918
44 | ACGCACACC | 1.55
45 | TCACCACCGT | 1.13
46 | GAGCCGGTTC | 0.974
47 | CATTGCTAAG | 1.04
48 | GCGGATTACT | 1.22
49 | CACCAGACAC | 1.14
50 | GGAGATCATT | 1
51 | TGGCGCCACG | 1.01
52 | ACTAGGAGTC | 0.943

Row | Sequence | switch fluorescence ratio
53 | ATCGCGGTAT | 1.02
54 | AAACGTTAAA | 0.95
55 | GCAGTAAAAG | 1.02
56 | GCGTGGATGG | 1
57 | GCGCCTATGT | 1.04
58 | TTGACGGGCG | 1.1
59 | ATAGGGACGG | 0.992
60 | CAGACGATTC | 1.07
61 | ATTTAACGCG | 1.06
62 | CGTTGCTAGG | 0.999
63 | ATGTAAGCGG | 1.02
64 | GGATACAGCT | 0.976
65 | ACTTTACATT | 1.3
66 | TAGGATAGGT | 1.01
67 | CGGTACCGGA | 0.982
68 | CACCGAGTAT | 1.04
69 | CATCATGAGG | 0.986
70 | GCAAGGTATC | 1.05
71 | CCCAGCCTCT | 1.02
72 | TACCAATTGC | 1.07
73 | TAATATAACA | 0.997
74 | TCTGTACA | 0.992
75 | TAGGTATCGC | 0.982
76 | TATTCCCTGA | 1.01
77 | AATAGTTGAG | 0.971
78 | AAGCAGGATG | 1.01

Row | Sequence | switch fluorescence ratio
79 | GAGCAAAACA | 1.06
80 | GAGGACCAGG | 1.04
81 | GTATACGCTT | 0.988
82 | CAGATGAGA | 0.984
83 | CACAGTGGAT | 0.994
84 | ACGGTCTAAT | 0.982
85 | AATGTCAGTT | 0.978
86 | AGTCCTGTCG | 0.94
87 | ATCTACGGCC | 1.07
88 | AGGTTCGGGT | 0.949
89 | TCAGATTCTT | 0.985
90 | GGTGATTCAG | 1.01
91 | TATCTGAGTT | 1.03
92 | TGGACACTAG | 1.03
93 | ACGAGAATTA | 1.04
94 | GCCATAGGGC | 1.03
95 | AATGTTCATA | 0.987
96 | TCATACATGC | 1.07
97 | GGGCAAAAAG | 1.01
98 | GTTTTATTTC | 0.978
99 | GAGCTAGCGG | 1.01
100 | TTTTCATCCC | 1.05
101 | CCCGGTCAGT | 1.03
102 | ATCAAATAGA | 1
103 | GGGGTCTACT | 1.02
104 | TACGTGTTTC | 0.985

Row | Sequence | switch fluorescence ratio
105 | ATGCACGGTA | 1.13
106 | CGCGTTCCTT | 1.03
107 | GTACCATGCA | 1
108 | CGCTACACAG | 1.06
109 | TGGTTTAGGA | 1.01
110 | TAGTTTTCCG | 1.02
111 | ACTACTAC | 1.23
112 | CTCCGGCCGT | 1.21
113 | AGGAATTATA | 0.994
114 | CTTAGCATAT | 1.46
115 | TATGTAGCA | 1.04
116 | GGATCAATAG | 1.27
117 | TAACAAGTGC | 0.98
118 | CCGTTGCCAT | 1.17
119 | AAGGTGCGCT | 0.979
120 | CCAGTAACT | 1.03
121 | GATCGGGCAG | 0.984
122 | GAGATTCAGC | 1.03
123 | AATGACCCA | 1.04
124 | AAACCGATTA | 1.06
125 | GCATAACTCT | 1.35
126 | CAAACAAACC | 1.03
127 | CTAGGATATC | 1.01
128 | ACCTGTGACG | 1.1
129 | GCGATGCTAA | 1.06
130 | GCTCCAATTA | 1.34

Row | Sequence | switch fluorescence ratio
131 | GTACGTGGCC | 1.05
132 | TAGCTGCAGG | 0.97
133 | CCGCGCGAAT | 1.93
134 | CCTCTAGAGA | 2.14
135 | ATCAGGCACG | 1.05
136 | GGTCCGCGAG | 2.13
137 | GTGCTAGATG | 1
138 | GTACGATAGT | 1.05
139 | CTTATGGTCG | 1.02
140 | ATTTTCGATC | 1.02
141 | GTTGGTCCGG | 0.986
142 | TTGGACGTCT | 0.947
143 | GCAGACCCAG | 0.984
144 | GGATGTCGAT | 0.971
145 | ATAGTCCGGG | 0.995
146 | ACAAACGTCT | 1.01
147 | GGGGAACCAA | 1.07
148 | TACACACTTA | 1.3
149 | TTAGGGTGTC | 0.968
150 | TAATCTGGAC | 1.19
151 | TTTTTGTC | 1.03
152 | GAGATGCACG | 1.07
153 | GTGCGAGTGG | 1.03
154 | TCCAACGGTG | 1.33
155 | GTGGACGTGT | 0.944
156 | GGGAGTCATT | 0.982

Row | Sequence | switch fluorescence ratio
157 | ACGCGAAACT | 1.87
158 | TATGGTGTTG | 0.965
159 | GCTTGAAGCA | 1.01
160 | TGTTGAGACA | 1
161 | CTCATCGTAC | 1.64
162 | ACAGGACGAG | 1.04
163 | CTACCTCTTT | 1.06
164 | ATAGGGGTAA | 0.993
165 | ACCTACGGTT | 1.19
166 | CCAAAACGCA | 1.23
167 | AAGGAACAGC | 1.01
168 | AATGATAACG | 1.04
169 | TCGATGTAAT | 1.28
170 | AAGAGGCTTT | 1.05
171 | TCACCAAACC | 1.15
172 | GTCAGTATCA | 0.971
173 | TGGATATCCC | 1.04
174 | GCTCCAATTG | 1.09
175 | TAAGAGTGAA | 1.03
176 | CCGGATAGAT | 1.01
177 | GGGAGAGAGA | 1.04
178 | TTGGGCCTAG | 0.965
179 | CTGGAGGG | 1
180 | ACACATGCTT | 1.01
181 | TTCCAAAACA | 0.983
182 | AGCAACGTGG | 0.987

Row | Sequence | switch fluorescence ratio
183 | CTCATCGGTG | 1.05
184 | GAGTGAGCTA | 0.967
185 | CCAATGCTGG | 1.05
186 | AGGAATATGT | 0.97
187 | GTATGCGCTC | 0.985
188 | GAATATAATT | 1.03
189 | TGAGTTAGAA | 0.986
190 | ATATAACGAG | 0.982
191 | AGCAACGTCC | 1.13
192 | TCGGTTAGTT | 0.94
193 | GTGGCATAGG | 0.996
194 | TATAGCTACT | 1.14
195 | CATCCATGAG | 1.01
196 | GGGTGACTTC | 0.947
197 | ACTCTCTGGC | 1.21
198 | GCGTTTTGGA | 0.963
199 | TTACGTACG | 1.38
200 | GTTTTTCTCA | 0.979
201 | AGCTTTTGTG | 0.958
